Measurements published in PubChem BioAssay AID1465 (SRMLSC, 2008).
The whole screen tested about 220,000 compounds, of which about 160 (0.073%) were called active. This list was built around the results that the source calls inconclusive (neither active nor inactive); the mix of calls is not that of the screen.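 Rule for the calls: active = fold induction of absorbance versus untreated yeast above a set limit, then at least 30% activation at any dose in follow-up; inconclusive = repeats straddling the limit, or above it without dose testing; inactive = fold induction below the set limit.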

Assay: enhancers of respiration in Yfh1-depleted yeast, dose response, Friedreich's ataxia, plus single-dose screen (AID 1465)
Conditions: S. cerevisiae Yfh1-off respiration, WST-1 reduction, 72 h; at 50 µM; hits give high values
For CCOc1ccccc1-c1cc(C(=O)N/N=C/c2ccc3c(c2)OCO3)c2ccccc2n1, the fold induction was inconclusive: 1.14. With O=c1c(N2CCOCC2)c(N2CCOCC2)c1=O the fold induction was inactive: 1.08. With Cc1c(N=Nc2c(-c3ccc([N+](=O)[O-])cc3)[nH]n(C(N)=S)c2=O)cccc1[N+](=O)[O-] the fold induction was inconclusive: 1.35. With COc1ccc(/C=C/C(=O)c2cc(F)ccc2OC(=O)c2ccccc2)cc1OC the fold induction was inconclusive: 1.14. In the case of N#CCSc1nc2c(c(=O)n1Cc1ccccc1)C1(CCCC1)Cc1ccccc1-2, the fold induction is reported as inconclusive: 1.22. With O=C(Nc1ccc(OC(F)(F)C(F)F)c(NC(=O)c2cccc(F)c2)c1)c1cccc(F)c1 the fold induction was inconclusive: 1.33. In the case of c1cncc(CSc2ccc(-c3cccnc3)nn2)c1, the fold induction is reported as inactive: 1.13. In the case of NC(=O)c1cccc2c(=O)oc3ccccc3c12, the fold induction is reported as inactive: 0.99. In the case of CCN(CC)S(=O)(=O)c1ccc2c(c1)nc(CCC(=O)OCC(=O)N1CCc3ccccc31)n2C, the fold induction is reported as inconclusive: 1.24. With O=C(c1ccccc1)c1ccc2nc(-c3ccco3)c(-c3ccco3)nc2c1 the fold induction was inconclusive: 1.33. For COC(=O)c1ccc(NC(=O)c2ccc(N(C)S(C)(=O)=O)cc2)cc1, the fold induction was inconclusive: 1.34. With C=CCOC(=O)C1=C(C)NC(SCC(=O)Nc2ccc(C)c(Cl)c2)=C(C#N)C1c1ccco1 (stereo not given) the fold induction was inconclusive: 1.56. With CCOC(=O)/C(=C/C=C1\Sc2ccccc2N1CC)C(C)=O the fold induction was inactive: 0.99. With CC(C)C(=O)NC(=S)/C=C1/N(C)c2ccccc2C1(C)C the fold induction was inconclusive: 1.35. For O=C(Nc1ccon1)c1cccc(C(F)(F)F)c1, the fold induction was inactive: 0.98. With O=C(O)c1cc([N+](=O)[O-])c(N2CCCC2)c([N+](=O)[O-])c1 the fold induction was inconclusive: 1.35. In the case of O=C1C=C(Nc2ccccc2)c2ccccc2C1=O, the fold induction is reported as inactive: 1. In the case of Cc1ccc(N2C(=O)SC(N(CC(=O)O)c3ccc(C)cc3)C2=O)cc1 (stereo not given), the fold induction is reported as inconclusive: 1.35. In the case of CC(=O)OCCn1c2nc(=O)[nH]c(=O)c-2nc2cc(C)c(C)cc21, the fold induction is reported as inconclusive: 1.54. In the case of Cc1ccc(NS(=O)(=O)c2ccc(N/N=C/c3ccncc3)c([N+](=O)[O-])c2)c(C)c1, the fold induction is reported as inconclusive: 1.33. For Cc1cccc(N2C(=O)CN(Cc3cccs3)C2=S)c1, the fold induction was inconclusive: 1.35. With c1csc(-c2nnc(N3CCOCC3)c3ccccc23)c1 the fold induction was inactive: 1.39. With CC(=O)c1cccc2c(O)c(C3=Nc4ccccc4C3=O)[nH]c12 the fold induction was inconclusive: 1.34. With S=C(Sc1ccc(Cl)cc1)Sc1ccc(Cl)cc1 the fold induction was inconclusive: 1.46. In the case of C/C(=N\NC(=O)c1[nH]c2c([N+](=O)[O-])cc(C)cc2c1-c1ccccc1)c1cccnc1, the fold induction is reported as inconclusive: 1.08. For O=C(Nc1ccc(Br)cc1Cl)NC1CC1, the fold induction was inconclusive: 1.33. For CCC1(C(=O)O)NC(c2cccc(OC)c2O)C2C(=O)N(c3ccccc3)C(=O)C21 (stereo not given), the fold induction was inactive: 1.01. In the case of CCCC(=O)NC(c1ccco1)c1cc(Cl)c2cccnc2c1O (stereo not given), the fold induction is reported as inactive: 0.7. In the case of Cc1ccc(NC2=C(C(=O)c3ccccc3)N(C)S(=O)(=O)c3ccccc32)cc1, the fold induction is reported as inconclusive: 1.18. In the case of O=C1N=c2ccccc2=C1c1sc(Nc2ccc(O)cc2)nc1O, the fold induction is reported as inconclusive: 1.48. In the case of O=C(COC(=O)c1ccc(S(=O)(=O)NCc2ccco2)cc1)Nc1ccc(OC(F)F)cc1, the fold induction is reported as inconclusive: 1.23. With Cc1nn(-c2ccccc2)c(C)c1/C=N/NC(=O)CSc1nnc(SCc2ccccc2Cl)s1 the fold induction was inconclusive: 1.34. With O=C(c1ccc(S(=O)(=O)Cc2ccccc2Cl)c([N+](=O)[O-])c1)N1CCN(c2ccccn2)CC1 the fold induction was inconclusive: 1.33. In the case of COc1c(O)cc2c(c1O)C(=O)CC(c1ccccc1)O2 (stereo not given), the fold induction is reported as inactive: 0.86. With Cc1ccc(C)c(OCCn2cc(/C=C(/C#N)C(=O)NCC3CCCO3)c3ccccc32)c1 (stereo not given) the fold induction was inconclusive: 1.35. For COc1c(N2CCN(C(=S)NCc3ccccc3)C(C)C2)c(F)cc2c(=O)c(C(=O)O)cn(C3CC3)c12 (stereo not given), the fold induction was inconclusive: 1.38. For c1ccc(CSc2nnc3c4ccccc4c4ccccc4c3n2)cc1, the fold induction was inconclusive: 1.44. In the case of CCCCCCN1C=CC(=C/C=C(\C#N)C(=O)OCC)C=C1, the fold induction is reported as inactive: 1.18. In the case of COC(=O)c1ccc(C(=O)OC)c(=O)[nH]1, the fold induction is reported as inactive: 1.03. In the case of O=c1/c(=C\c2ccc(O)cc2)sc2n1C(c1ccccc1)C(c1ccccc1)=NN=2 (stereo not given), the fold induction is reported as inconclusive: 1.14. With c1coc(C2Nc3cccc4cccc(c34)N2)c1 the fold induction was inconclusive: 1.36. For Cc1ccc(NC(=O)CSc2nnc(-c3cccnc3)n2-c2ccc(C)cc2)cc1, the fold induction was inconclusive: 1.17. With CCOc1cc(/C=C(/C#N)C(=O)Nc2ccc(O)cc2)cc(Br)c1O the fold induction was inconclusive: 1.33. For CC(=O)c1cccc(NC(=O)C(OC(=O)c2ccccc2NS(=O)(=O)c2cccs2)c2ccccc2)c1 (stereo not given), the fold induction was inconclusive: 1.34. For O=C(CN(Cc1ccccc1)C(=O)CSc1nnc(COc2ccccc2)o1)NC1CCCC1, the fold induction was inconclusive: 1.25. For Cc1c(S(=O)(=O)N2CCN(C(c3ccccc3)c3ccccc3)CC2)c(=O)n(C)c(=O)n1C, the fold induction was inactive: 1.25. With O=C(NCCO)Nc1ccc2nc(-c3ccco3)c(-c3ccco3)nc2c1 the fold induction was inconclusive: 1.51. In the case of CCOc1cc(/C=C2/SC(=S)N(CC(=O)O)C2=O)ccc1OC(=O)c1cccs1, the fold induction is reported as inconclusive: 1.33. In the case of COc1ccc(NC(=S)NNC(=O)COc2ccc(Cl)cc2Cl)cc1, the fold induction is reported as inactive: 0.84. For O=S(=O)(c1ccc2nc(-c3ccco3)c(-c3ccco3)nc2c1)N1CCOCC1, the fold induction was inconclusive: 1.33. For Cc1c(/C=N/NC(=O)c2cccnc2)c2ccccc2n1Cc1ccccc1, the fold induction was inactive: 1.01. For CCCC(=O)c1cc2ccccc2oc1=O, the fold induction was inactive: 1.11. With Cc1c(Cl)cccc1NC(=S)NCCC(c1ccccc1)c1ccccc1 the fold induction was inconclusive: 1.26. In the case of Cc1onc(-c2ccccc2)c1C(=O)NC(=S)NNC(=O)c1ccco1, the fold induction is reported as inconclusive: 1.33. For CCOc1ccc2nc(NC(=O)CCC(=O)c3cccs3)sc2c1, the fold induction was inconclusive: 1.23. With CC[n+]1c(/C=C2/C=C(C)CC(C)C2)sc2ccccc21 (stereo not given) the fold induction was inactive: 0.96. With COc1ccccc1N1C(C)=CC(=C(C#N)c2nc3ccccc3s2)C=C1C the fold induction was inconclusive: 1.35. In the case of Cc1cc2ccccc2n2c(SCC(=O)NCC3CCCO3)nnc12 (stereo not given), the fold induction is reported as inactive: 0.94. With N=c1c2c(-c3ccccc3)c(-c3ccccc3)n(Cc3ccco3)c2ncn1CCO the fold induction was inconclusive: 1.16. For Nc1nc(=S)[nH]c2c1C1(CCCC1)Cc1ccccc1-2, the fold induction was inconclusive: 1.34. With COc1cccc2c1C(=O)C=C(C)C2=O the fold induction was inactive: 1.23. With Cc1c(NN=C(C#N)C#N)c(=O)n(-c2ccccc2)n1C the fold induction was inactive: 0.98. In the case of CCCCOC(=O)CSC1=C(C#N)C(c2ccccc2OC)C(C#N)C(=O)N1 (stereo not given), the fold induction is reported as inconclusive: 1.43. For COc1cc(NC(=S)N2CCN(C(c3ccccc3)c3ccccc3)CC2)cc(OC)c1, the fold induction was inconclusive: 1.53. For Oc1ccc(N=Nc2nccs2)c(O)c1, the fold induction was inconclusive: 1.61. With CCOC(=O)c1cnc(SCc2nc(N)nc(Nc3ccccc3)n2)nc1N the fold induction was inconclusive: 1.17. In the case of Cc1nc(S/C(=C\c2ccc(-c3ccc(C(=O)O)c(Cl)c3)o2)C(=O)O)n[nH]1, the fold induction is reported as inconclusive: 1.33. For CCCOc1ccc(CC(=O)NNC(=S)Nc2ccccc2)cc1Br, the fold induction was inconclusive: 1.38. In the case of COc1cc2c3c(c1)C(C)=CC(C)(C)N3C(=O)C2=O, the fold induction is reported as inconclusive: 1.34. With O=C(CSc1nnc(COc2cccc3ccccc23)o1)N1c2ccccc2CCc2ccccc21 the fold induction was inconclusive: 1.14. With CCc1ccc(S(=O)(=O)/N=C2\C=CC(=O)c3ccccc32)cc1 the fold induction was inconclusive: 1.61. For Oc1ccc(NC(=S)N=Nc2c(O)[nH]c3ccc(Br)cc23)cc1, the fold induction was inconclusive: 1.34. For CC1OC(Nc2ccc(N=Nc3ccccc3)cc2)C(O)C(O)C1O (stereo not given), the fold induction was inconclusive: 1.33. With C=CCN1C=CC(=C/C=C(/C#N)C(=O)OCC)C=C1 the fold induction was inconclusive: 1.9. With CCS(=O)(=O)N1CCN(c2ccc([N+](=O)[O-])c(N3CCOCC3)c2)CC1 the fold induction was inconclusive: 1.45. In the case of Oc1ccc(CN2CCCCC2)c2cccnc12, the fold induction is reported as inactive: 0.69. For CCN1C(C)=C(C)S/C1=C1\SC(=S)N(NC(C)=O)C1=O, the fold induction was inconclusive: 1.33. For NNC(=O)CCc1c[nH]c2ccccc12, the fold induction was inactive: 0.93. With CCN1C(=O)CC(n2c(C)nc3ccccc32)C1=O (stereo not given) the fold induction was inconclusive: 1.13. In the case of CCOC(=O)c1c(C)oc2c1c(CN1CCN(C(=O)OCC)CC1)c(O)c1ccccc12, the fold induction is reported as inactive: 1.19.
